Experimental data published in the RNAGym collection of RNA variant scans (doi:10.1073/pnas.2313332121).
Variants at the floor of the assay are shown more often than the library holds them.

B1: TPR 5TU (parent)
chain: GGAUCUUCUCGAUCUAACAAAAAAGACAAAUCUGCCACAAAGCUUGAGAGCAUCUUCGGAUGCAGAGGCGGCAGCCUUCGGUGGCGCGAUAGCGCCAACGUUCUCAACUAUGACACGCAAAACGCGUGCUCCGUUGAAUGGAGUUUAUCAUG

Variants of: B1
Experiment: polymerase ribozyme fitness, log enrichment relative to wild type (log ratio); higher = more active; in vitro selection for triplet polymerase activity
In short: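 Mutant libraries of both subunits of a heterodimeric triplet polymerase ribozyme were PCR-built, transcribed, and selected once in triplicate, with frozen incubation at −7 °C and capture of gel-excised extended constructs on streptavidin beads before RT-PCR. Illumina sequencing of input and output libraries was filtered to genotypes with ≥10 input reads and ≥1 read per output. Fitness is the logarithm of genotype enrichment over wild-type enrichment, using inverse-variance-weighted replicate averages. The logarithm is base 2.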

Variant	polymerase ribozyme fitness (log ratio)
GGAUCUUCUCGAUCUAACAAAAAAGACAAAUCUGCCGCAAAGCUUGAGAGCAUCUUCGUAUGCAGAGGCGGCAGCCUUCGGUGGCACGAUAGCGCCAAAGUUCUCAACUAUGACACGCAAAACGCGUGCCCCGUUGAAUGUAGUUUAUCAUG [A37G G59U G86A C99A U130C G141U]	≤ -4.2
GGAUCUUCUCGAUCUAACAAAAAAGACAAAUCUGCCGCAAAGCUUGAGAGCAUCUUCGGAUGCAGAAGCGGCAGCCUUGGGUGGCGCGAUAGCGCCAACGUUCUCAACUAUGACACGCAAAACGCGUGCUCCGUUGAAUGGAGUUUAUCAUG [A37G G67A C79G]	≤ -4.2
GGAUCUUCUCGAUCUAACAAAAAAGACAAAUCUGCCGCAAAGCUUGAGAGCAUCUUCGGAUGCAGAGACGGCAGCCUUCGGUGGCGCGAUAGCGCCAACGUUCUCAACUAUGACACGCAAAACGCGUGCUCCGUUGAAUGGAGUUUAUCAUG [A37G G68A]	≤ -4.2
GGAUCUUCUCGAUCUAACAAAAAAGACAAAUCUGCCGCAAAGCUUGAGAGCAUCUUCGGAUGCAGAGGCAGAAGCCUUCGGUGGCGCGAUAACGCCAACGUUCUCAACAAUGACGCGCAAAACGCGUGCUCCGUUGAAUGGAGUUUAUCAUG [A37G G70A C72A G92A U109A A115G]	≤ -4.2
GGAUCUUCUCGAUCUAACAAAAAAGACAAAUCUGCCGCAAAGCUUGAGAGCAUCUUCGGAUGCAGAGGCGGCAGCCUUCGCUGGCGCGAUAGCGCCAACGUUCUCAACUAUGACACGCAAAACGCGUGCUCCGUUGAAUGGCGUUUAUCAUG [A37G G81C A142C]	-3.82
GGAUCUUCUCGAUCUAACAAAAAAGACAAAUCUGCCGCAAAGCUUGAGAGCAUCUUCGGAUGCAGAGGCGGCAGCCUUCGGUAGCGCGAUAGGGCCAACGUUCUCAACUAUGACACGCAAAACGCGUACCCCGUAGAAUGGCGUUUAUCAUG [A37G G83A C93G G128A U130C U135A A142C]	≤ -4.2
GGAUCUUCUCGAUCUAACAAAAAAGACAAAUCUGCCGCAAAGCUUGAGAGCAUCUUCGGAUGCAGAGGCGGCAGCCUUCGGUAGCGCGAUAGCGCCAACGUUCGCAACUAUGACACGCAAAACGCAUGCUCCGUUGAAUGGAGUUUAUCGUG [A37G G83A U104G G126A A150G]	≤ -4.2
GGAUCUUCUCGAUCUAACAAAAAAGACAAAUCUGCCGCAAAGCUUGAGAGCAUCUUCGGAUGCAGAGGCGGCAGCCUUCGGUGGCUCGAUAGCGGCAACGUUCUCUACUAUGACACGCAAAACGCGUGCUCCGUAGAAUGGAGUUUAUCAUG [A37G G86U C95G A106U U135A]	≤ -4.2
GGAUCUUCUCGAUCUAACAAAAAAGACAAAUCUGCCGCAAAGCUUGAGAGCAUCUUCGGAUGCAGAGGCGGCAGCCUUCGGUGGCUCGAUAGCGCCAACGGUCUCAACUAUGACGCGCAAAACGCGUGCUCCGUUUAAUGCAGUUUAUCAUG [A37G G86U U101G A115G G136U G141C]	≤ -4.2
GGAUCUUCUCGAUCUAACAAAAAAGACAAAUCUGCCGCAAAGCUUGAGAGCAUCUUCGGAUGCAGAGGCGGCAGCCUUCGGUGGCGCCAUAGCGCCAACGUUCUUAAAUAUGAAACGCAAAACGCGUGCUCCGUUGAAUGGAGUUUAUCAUG [A37G G88C C105U C108A C114A]	≤ -4.2
GGAUCUUCUCGAUCUAACAAAAAAGACAAAUCUGCCGCAAAGCUUGAGAGCAACUUCGGAUGCAGAGGCGGCAGCCUUCGGUGGCGCGAUAGCUCCAACGUUCUCAACUAUGAUACGCAAAACGCGUGCUCCGUUGAAUAGAGUUUAUCAUG [A37G U53A G94U C114U G140A]	≤ -4.2
GGAUCUUCUCGAUCUAACAAAAAAGACAAAUCUGCCGCAAAGCUUGAGAGCAUCAUCAGCUGCAGCGGCGGCAGCGUUCGGUGGCGCGAUAUCGCCAACGUUCUCAACUAUGACACGCAAAACGCGUUCUCCGUUGAAUGGAGUUUAACUUG [A37G U55A G58A A60C A66C C76G G92U G128U U148A A150U]	≤ -4.2
GGAUCUUCUCGAUCUAACAAAAAAGACAAAUCUGCCGCAAAGCUUGAGAGCAUCUACGGAUGCAGAGGCGGCAGCCUUCGGUGGCGCGAUAGCGCCGACGUUCUCAACUAUGACACGCAAAACGCGUGCUCCGUUGAAUGGAGUUUAUCAUG [A37G U56A A97G]	-2.85
GGAUCUUCUCGAUCUAACAAAAAAGACAAAUCUGCCGCAAAGCUUGAGAGCAUCUUCGGAUGCAGAGGCGGCAGCCGUCGGUGGCGCGAUAGCGCCAACGUUCUCAACUAUGACACGCAAAACGCGUGCUCCGUUGAAUGGAGUUUCUCAUG [A37G U77G A147C]	≤ -4.2
GGAUCUUCUCGAUCUAACAAAAAAGACAAAUCUGCCGCAAAGCUUGAGAGCAUCUUCGGAUGCAGAGGCGGCAGCCUUCGGUGGCGCGAAAGCACCAACGUUUUCAGCUAUGACACGCAAAACGGGUGCUCCGUUGAAUGAAGUUUAUCAUG [A37G U90A G94A C103U A107G C125G G141A]	≤ -4.2
GGAUCUUCUCGAUCUAACAAAAAAGACAAAUCUGCCUCGAAGCUUGAGUGCAUCUUCGGAUGCAGAGGCGGCAGCCUUCGCUGGCGCGAUCGCACCAACGUUCUCAACUAUGACACGCAAAACGCGUGCUCCGUUGAAUGGAGUUAAUCAUG [A37U A39G A49U G81C A91C G94A U146A]	≤ -4.2
GGAUCUUCUCGAUCUAACAAAAAAGACAAAUCUGCCUCACAGCUUGAGAGCAUCUUCGGAUGCAGAGGCGGCAGCCUUCGGUGGCUCGAUAGCGCCAACGUUCUCAACUAUGACACGCAAAACGUGUGCUCCGUUGAAUGGAGUUUUUGAUG [A37U A40C G86U C125U A147U C149G]	≤ -4.2
GGAUCUUCUCGAUCUAACAAAAAAGACAAAUCUGCCUCAUAGCUUGAGAGCAUCUUCGGAUGCAGAGGCGGCAGCCUUCGGUGGCGCGUUAGCGCCAACGUUCUCAACUAUGACACGCAAAACGCGUGCUGCGUUGAAUGGAGUUUAUCAUG [A37U A40U A89U C131G]	≤ -4.2
GGAUCUUCUCGAUCUAACAAAAAAGACAAAUCUGCCUCAACGCUUGAGAGCAUCUUCGGAUGCAGAGGCGGCAGCCUUCGGUGGCGCGAUAGCGCCAAUGUUCUCAACUAUGACACGCAAAACGCGUGCUCCGUUGAAUGGACUUUAUCAUG [A37U A41C C99U G143C]	≤ -4.2
